Experimental data as given in PubChem BioAssay AID652104 (National Center for Advancing Translational Sciences (NCATS), 2013).
Screen size: about 410,000 compounds; about 7,200 (1.8%) were called active. The shares of active, inactive and inconclusive entries below differ from those in the screen. Calls come from the whole dose curve; as a rule, active = well fitted activation curve with a large enough effect; inconclusive = small, poorly fitted or top-dose-only effect, or another doubt; inactive = no such curve, though single readings can be large or run the other way. Potencies of inconclusive entries are doubtful fits and often do not repeat.

Experiment: qHTS of TDP-43 Inhibitors; note: nearly all actives have a fitted effect of over 50% in size; for growth rescue (activation): % of control where 0% means no effect
Settings: TDP-43 expressing yeast growth rescue, BacTiter-Glo, 24 h; growth rescue (activation): at 46.1 µM (top of the series) unless noted
How it was run: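 Yeast cells expressing TDP-43 under galactose induction are exposed to compounds for 24 hr at 30 deg C. BacTiter-Glo luminescence measures growth, so protective compounds score as activators.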
Potency is the fitted concentration of half-maximal effect; tags give direction and shape of the fitted curve.

Potency, inconclusive:
COc1ccc(CCNS(=O)(=O)c2cccs2)cc1 35.5 µM [activator, single point]
O=c1c2ccccc2nc2c3ccccc3c(NCc3ccco3)nn12 0.562 µM [activator, full curve, poor fit]
CCN(CC)C(=O)Oc1ccc(Br)c2ccccc12 1.12 µM [activator, full curve]
O=C(c1cccs1)N1C[C@H](n2cc(-c3ccc(F)cc3)nn2)[C@@H](O)C[C@@H]1c1ccc(Cl)cc1 0.316 µM [activator, full curve, poor fit]
OC(c1ccccc1)c1nc(-c2cccc(F)c2)cs1 (stereo unspecified) 35.5 µM [activator, single point]
O=C(/C=C/c1cccc([N+](=O)[O-])c1)NCCSCc1ccccc1Cl 14.1 µM [activator, single point]
C[C@@H]1CN([C@H](C)CO)C(=O)CCCn2nncc2CO[C@@H]1CN(C)C(=O)C1CCCCC1 3.98 µM [activator, full curve, poor fit]
Cc1ccc(OCC(=O)Nc2c(C)ccc3nsnc23)cc1 12.6 µM [activator, partial curve]
N#C/C(=C\c1ccc(Br)cc1)c1nc(-c2cc3cc(Br)ccc3oc2=O)cs1 0.562 µM [activator, full curve, poor fit]
Cc1ccc(N2C(=O)c3ccccc3NC2C(C)Cc2ccc3c(c2)OCO3)cc1 (stereo unspecified) 11.2 µM [activator, single point]
NC(=S)N=Nc1c(O)n(Cc2ccc(F)cc2)c2ccccc12 2.51 µM [activator, full curve, poor fit]
O=C(c1cc(-c2ccco2)on1)N1CCN(c2ccccc2)CC1 10 µM [activator, partial curve]
Cc1nc(-c2ccc(Cl)cc2)sc1C(=O)O 11.2 µM [activator, partial curve]
N#Cc1ccc(-c2nc3ccc(Cl)cn3c2Cc2ccccc2)cc1 6.31 µM [activator, full curve]
COc1ccc(CN(C(=O)CSc2nnc(-c3c[nH]c4ccccc34)o2)c2ccc(F)cc2)cc1OC 14.1 µM [activator, single point]
O=C(Cc1ccc(Cl)cc1)c1ccc(O)cc1 31.6 µM [activator, single point]
Cc1ccc2c(c1)c1c(n2CC(O)Cn2nc(C)c(Br)c2C)CCCC1 (stereo unspecified) 22.4 µM [activator, single point]
Nc1cc(-c2cccc(F)c2)nn1S(=O)(=O)c1cccc2nsnc12 25.1 µM [activator, partial curve]
CCc1ccccc1NC(=O)C1CC(c2ccc(F)cc2)=NO1 (stereo unspecified) 12.6 µM [activator, partial curve, poor fit]
COC(=O)c1ccc2nc(-c3ccc(C#N)cc3)c(Cc3cccc(F)c3)n2c1 35.5 µM [activator, partial curve]
CO/N=C/NC(=O)C1=NOC(CNc2ncc(C(F)(F)F)cc2Cl)C1 (stereo unspecified) 12.6 µM [activator, single point]
COC(=O)c1ccc(COc2ncnc3sccc23)cc1 17.8 µM [activator, partial curve]
CCc1nc(C)cn1S(=O)(=O)c1cc([N+](=O)[O-])ccc1Cl 2.51 µM [activator, full curve, poor fit]
CCC(=O)N(C)CCc1cc2c(c(OC)c1/C=N/NC(=O)c1ccccc1O)OCO2 3.55 µM [activator, partial curve]
Cn1cc(Cl)c(C(=O)NNC(=S)NC2CCCCC2)n1 25.1 µM [activator, partial curve]
C=CCN(Cc1nc(-c2ccc(OC)cc2)no1)C(=O)c1ccc2c(c1)OCO2 5.62 µM [activator, single point]
O=C(N/N=C/c1cccc(OC(=O)c2ccccc2Cl)c1)c1cccnc1 11.2 µM [activator, partial curve]
COc1ccc(C(=O)/C=C/c2cc(OC)c(O)c(OC)c2)c(F)c1 11.2 µM [activator, partial curve]
O=S(=O)(c1ccc(NC(=S)NCc2ccc(F)cc2)cc1)N1CCOCC1 3.55 µM [activator, partial curve]
Cc1c(C(=O)N2CCN(c3ccc(F)cc3)CC2)sc2nc(-c3ccccc3)cn12 3.55 µM [activator, full curve, poor fit]
COc1cccc(CNC(=O)c2nnc(Cc3ccc(Cl)cc3)o2)c1 39.8 µM [activator, partial curve, poor fit]
C=CCOC(=O)C1=C(C)NC(C)=C(C(=O)OCC=C)C1/C=C/c1ccccc1 20 µM [activator, single point]
COc1cccc(NC(=S)N2c3ccccc3CC2C)c1 (stereo unspecified) 22.4 µM [activator, single point]
COc1cccc(N2CCN(C(=O)Cn3ncc4c5ccccc5n(C)c4c3=O)CC2)c1 5.62 µM [activator, single point]
CC(C)c1ccc2[nH]c3c(c2c1)CCCC3=O 17.8 µM [activator, single point]
COc1ccc(OC)c(C(=O)NC2CCSc3ccccc32)c1 (stereo unspecified) 22.4 µM [activator, single point]
COc1ccc(S(=O)(=O)n2nc(-c3cc(OC)c(OC)c(OC)c3)cc2N)cc1OC 3.55 µM [activator, partial curve]
CCOC(=O)c1cnn(C)c1NC(=O)c1ccc(Cl)cc1Cl 35.5 µM [activator, single point]
COc1ccc(Nc2nc(NCc3ccco3)nc(N/N=C/c3ccccc3F)n2)cc1 17.8 µM [activator, single point]
Cc1ccc(-n2nnnc2-c2cnn(-c3cccc(F)c3)c2C(F)(F)F)cc1 31.6 µM [activator, single point]
CCOc1ccc(-c2cc(CCCC(=O)NCCc3ccc(OCC)c(OCC)c3)no2)cc1 35.5 µM [activator, single point]
Oc1c(N=NC(=S)Nc2ccccc2F)c2ccccc2n1Cc1ccccc1Cl 3.16 µM [activator, full curve]
c1ccc(-n2nnnc2-n2nnc3ccccc32)cc1 12.6 µM [activator, single point]
COc1ccc(COc2ccc3ccc(=O)oc3c2)cc1 10 µM [activator, partial curve]
Cc1cc2occ(CC(=O)OCC(=O)Nc3sc4c(c3C#N)CCC(C)C4)c2cc1C (stereo unspecified) 12.6 µM [activator, partial curve]
Cc1ccc(C)n1NC(=O)c1ccc(Cl)cc1 8.91 µM [activator, partial curve, poor fit]
CC(C)CC1OC(C)CC2=C1C(=O)OC(C)(C)O2 (stereo unspecified) 35.5 µM [activator, single point]
Cc1cccc(CNC(=O)CCCN2C(=O)COc3ccc(C)cc32)c1 20 µM [activator, single point]

Potency, active:
Cc1cc(C(=O)CSc2cccc[n+]2[O-])c(C)n1-c1ccc(OC(F)F)cc1 14.1 µM
Cc1nn(-c2ccccc2)c2c1N(CCCC(=O)NCc1ccc(Cl)cc1)C(=O)CS2 20 µM
CSc1nnc(Nc2ccccc2C)s1 11.2 µM
COc1ccccc1CNC(=O)COc1ccc(C)cc1 11.2 µM

Growth rescue (activation), inconclusive:
Cc1cc(C(=O)N/N=C/c2cccc(OC(=O)c3cccc(Br)c3)c2)n[nH]1 34% [activator]

Growth rescue (activation), inactive:
COc1cccc(NC(=O)C(=O)NCC(c2ccc3c(c2)OCO3)N2CCOCC2)c1 (stereo unspecified) -7.78%
CSc1ccccc1NC(=O)CNCCCN1CCOCC1 -26.3%
O=C(Cn1c(=O)n(-c2ccc(Cl)cc2)c(=O)c2sc3ccccc3c21)NC1CCCCC1 7.99%
COc1cccc(CNC(=O)c2ccc3c(c2)N(Cc2ccc(C(F)(F)F)cc2)C(=O)c2ccccc2S3)c1OC 8.14%
CC(C)CCNC(=O)CN1C(=O)c2cccnc2Oc2ccccc21 14.4%
CC(SCc1ccccc1)C(=O)Nc1ccccc1-c1ccccc1 (stereo unspecified) -24.7%
O=C(NCC1CCCO1)c1cc2c([nH]c3ccccc32)c(-c2ccc(F)cc2)n1 (stereo unspecified) 0%
O=C(NCc1ccc(Cl)cc1)C1CCN(S(=O)(=O)c2ccc3c(c2)CCCN3C(=O)C2CCC2)CC1 22.5%
COc1ccc(Br)cc1CN1C(=O)NC2(CCCCCC2)C1=O -10.4%
COc1ccc(-n2nc(C(=O)N3CCN(c4cccc(C(F)(F)F)c4)CC3)c3c4ccccc4n(C)c3c2=O)cc1Cl -10.3%
CC(=O)c1sc(Nc2ccccc2)nc1C 0%
CCSc1ccc(-c2cc(NC=O)c3ncc(-c4cccc(C(=O)NCCN(C)C)c4)n3c2)cc1 21.7%
Cc1ccc(NC(=O)Nc2ccc3nc(N4CCN(C)CC4)cc(C)c3c2)cc1C 14.3%
